65 molecules from ChEMBL document CHEMBL1156829 can be followed below.

Structures are written as SMILES. The full ranking holds about 5,400 compounds; the median of “IFI” is about 2, and the highest 2% start at about 22. Some of the results follow.

The nature of this assay: NOVARTIS: Inhibition Frequency Index (IFI) - the number of HTS assays where a compound showed > 50% inhibition/induction, expressed as a percentage of the number of assays in which the compound was tested. It is filed as functional.
In turn, `Nc1c(C(=O)Nc2ccc(F)cc2)sc2nc3c(c(-c4cccs4)c12)CCCC3` registered an IFI of 3.53%.

`Cc1ccc2cc3c(N)c4cccc(C)c4nc3nc2c1` gave an IFI of 12.8%. `CCOC(=O)N1CCC(n2c(SCC(=O)N3CCCCCC3)nc3ccccc3c2=O)CC1` yielded an IFI of 0%. Then `CN1CCN=C1c1ccc(NC(=O)c2ccc(C(=O)Nc3ccc(C4=NCCN4C)cc3)c([N+](=O)[O-])c2)cc1`, with 10.8%; and `COc1ccc(-c2cnnc(NN=Cc3ccc([N+](=O)[O-])o3)n2)cc1`, with 0%; and `COc1cc(NC(C)CCCN(Cc2ccc(OC)c(OC)c2)C(=O)NC2CCCCC2)c2ncccc2c1` (stereo not given), with 3.19%.

Take `Cn1c(SCc2cccc([N+](=O)[O-])c2)nc2c(c1=O)SCC2`: the IFI came out at 0%. For `CN1CCc2c(sc3c2C(=O)NC(c2ccc(O)cc2)N3)C1` (stereo not given) the value was 0%; for `O=C(NC(CN1CCCC1)c1ccccc1)C1CCCCN1S(=O)(=O)c1ccc(Cl)cc1` (stereo not given), 0.971%; for `c1cncc(-c2cc(NCCCn3ccnc3)nc(-c3ccncc3)n2)c1`, 0%. Then `CCOc1ccc(/C=C2/SC(=Nc3ccccc3)NC2=O)cc1OC`, with 3.45%.

`O=C(Nc1ccc(-c2nc3ccccc3[nH]2)cc1)c1ccc(Cl)c(Cl)c1` gave an IFI of 6.82%. Then `Cc1cccn2c(NCc3ccccc3)c(-c3ccccc3OC(=O)C(C)Cl)nc12` (stereo not given), with 4.67%; and `CCCN1CCc2c(sc3nc(SCC(=O)OC)nc(N)c23)C1`, with 8%. Then `CCOc1ccc(Nc2nc(NCc3ccco3)c3ccccc3n2)cc1`, with 3.85%; and `CC(CC(=O)Oc1ccccc1-c1nc2ccccn2c1NC(C)(C)CC(C)(C)C)CC(C)(C)C` (stereo not given), with 2.83%; and `COc1ccc(SC2CCN(C3CCOCC3)CC2)cc1`, with 1.39%. Then `COC(=O)c1cn([C@@H]2C[C@@H](C(=O)NCc3cccc(C(F)(F)F)c3)N(C3CCN(Cc4ccccc4)CC3)C2)nn1`, with 1.75%; and `CC1CN(C)C(C)CC1=NOC(=O)c1ccc(Cl)c(Cl)c1` (stereo not given), with 0%; and `Cc1cc(C)cc(NC2=C(N)C(=O)c3ccccc3C2=O)c1`, with 0%.

Molecule `Clc1ccc2c(NC3CCCCCCC3)ccnc2c1` had an IFI of 1.27%.

Turning to `COc1ccc(C2CC(c3cccs3)=NN2C(=O)CSc2nnc(CNC(=O)c3cccs3)n2-c2cc(C)ccc2C)cc1` (stereo not given), the IFI stood at 2.41%. For `COC(CNC(=O)c1c[nH]c2ccc(S(=O)(=O)N3CCN(C)CC3)cc2c1=O)OC` the value was 0%; for `COc1cc(OC)cc(C(=O)N2CCN(Cc3cccc(Br)c3)CC2)c1`, 0%.

Consider `CC(NCCC(c1ccccc1)c1ccccc1O)c1ccccc1` (stereo not given), for which the IFI amounted to 0%. Then `COc1ccc(OC)c(C(=O)c2oc3ccccc3c2NC(=O)CCl)c1`, with 0%. For `Cn1c(=O)[nH]c2c(c1=O)n(C)c(=O)n2C` the value was 1.4%; for `CC1CCC(C(C)(C)Oc2ccc(NC(=O)c3ccccc3)cc2)CC1` (stereo not given), 0.833%; for `O=C(NC(=S)Nc1ccc(-c2nc3ccccc3s2)cc1)c1ccc(S(=O)(=O)N2CCCC2)cc1`, 0%. `Clc1cccc(CCNC2CCN(CCc3ccccc3)CC2)c1`: the IFI was 2.34%.

In turn, `COc1cc2c(OC3OCC(OC)C(OC)C3O)c3c(c(-c4ccc5c(c4)OCO5)c2cc1OC)C(=O)OC3` (stereo not given) displayed an IFI of 27.7%.

The molecule `CC(C)(C)c1ccc(Cn2nnc3c(O)nc(C4CCN(C(=O)c5ccccc5)CC4)nc32)cc1` had an IFI of 10.8%. `COc1ccc(NC2=C(c3ccc(OC)cc3)C(=O)c3ccccc32)cc1` came in with an IFI of 4.76%.

For `CCCCOC(=O)C1=C(C)NC2=C(C(=O)CCC2)C1c1ccc(Cl)c(Cl)c1` (stereo not given), the IFI was determined as 2.3%. Then `O=C(NC1CCN(Cc2ccccc2)CC1)c1cc(-c2ccc(F)cc2)cc(-n2cnnn2)c1`, with 3.03%; and `COc1cccc(C(=O)NC(c2ccc(Cl)cc2)c2cc(Cl)c3cccnc3c2O)c1` (stereo not given), with 0%; and `CN(Cc1ccccc1)C(=O)CSc1nc(NCc2ccccc2)c2ccccc2n1`, with 0%. The molecule `CCOc1ccc(NCc2ccc(O)c3ncccc23)cc1` gave an IFI of 13%. Consider `CC1(C)CC(=O)C2=C(C1)Nc1ccccc1N(C(=O)Cc1ccccc1)C2c1ccc([N+](=O)[O-])s1` (stereo not given), for which the IFI was 1.19%. For `Nc1ncc(Br)cc1S(=O)(=O)NCCC(=O)N1CC=C(c2ccccc2)CC1` the value was 1.96%.

With `CCOC(=O)CCS(=O)(=O)c1ccc(Br)cc1`, the IFI is 1.54%. For `c1ccc(CNc2nc(-c3ccccn3)nnc2-c2ccccc2)cc1` the value was 15.4%. `O=C(COC(=O)c1ccccc1O)c1ccc(Br)cc1`: the IFI stood at 4.65%. The molecule `O=C(C1CCN(S(=O)(=O)c2cccc3nonc23)CC1)N1CCCc2ccccc21` yielded an IFI of 1.85%. For the molecule `CCN(CC)c1ccc(/C=C(/C#N)c2nc3ccccc3[nH]2)o1`, the IFI amounted to 7.69%. Then `CCN(CC)C(=O)c1cn(C2CCN(Cc3ccco3)CC2)nn1`, with 1.77%; and `Clc1cccc(C(Nc2cccnc2)(c2ccccc2)c2ccccc2)c1`, with 0%; and `COC(=O)CNC(c1ccccc1Cl)c1cc(Br)ccc1NS(=O)(=O)c1ccc(C)cc1` (stereo not given), with 0%. Then `COc1cc(Br)c(C2CC(=O)Nc3ccc4ccccc4c32)cc1OC` (stereo not given), with 0%; and `CCCCC(=O)Oc1ccccc1-c1nc2ccccn2c1NC(C)(C)CC(C)(C)C`, with 4.72%. Then `CC(C)CCNC(=O)CN1C(=O)c2cccnc2Oc2ccccc21`, with 0%. `CCN1c2ccccc2N(C)C1(C)c1ccccc1` (stereo not given) had an IFI of 6.56%.

On to `CCOC(=O)C1=C(C)NC2=C(C(=O)CC(c3ccc(OC)c(OC)c3)C2)C1c1ccc(Br)cc1` (stereo not given), for which the IFI is 4.71%. For `CCOC(=O)c1nnn(-c2nonc2N)c1-c1ccc(C)cc1` the value was 0%; for `CN(C)c1cc(NC(=O)Nc2cccc(Cl)c2)c2ccccc2n1`, 7.64%. The molecule `c1ccc2c(c1)OC13CCCCC1C2NCC3` (stereo not given) returned an IFI of 0%. Then `O=C(CSc1nc2cc3c(cc2c(=O)n1Cc1ccco1)OCO3)Nc1cc(C(F)(F)F)ccc1Cl`, with 4.35%. For `Cc1cc(/C=C2/SC(=S)N(CC(=O)O)C2=O)c(C)n1-c1ccccc1` the value was 0%; for `Cc1ccc(C(=O)C(C)[n+]2ccc(N(C)C)cc2)cc1` (stereo not given), 0%; for `COCCCNC(=O)c1c(C)nc2scc(C)n12`, 0%.

The molecule `CCOC(=O)C1=C(N)OC2=C(C(=O)CC(c3ccccc3)C2)C1c1ccc(Cl)cc1Cl` (stereo not given) registered an IFI of 1.18%. Then `CCOc1ccc(NC(=O)c2ccc(C)o2)cc1`, with 0%.

Molecule `Cc1ccc(Cn2c(C)c3cnn(CC(=O)O)c(=O)c3c2C)cc1` gave an IFI of 0%. `Cc1ccc2nc(Nc3nc(O)c4ccccc4n3)nc(C)c2c1` yielded an IFI of 0%. Take `COc1cc2nc(C3CCC3)n(NC(=O)c3cccc(F)c3)c(=O)c2cc1OC`: the IFI was determined as 8.33%.
